{"source": "PubChem BioAssay AID2675", "about": "(National Center for Advancing Translational Sciences (NCATS), 2010)", "note": "In all, about 280,000 compounds went through this assay and about 100 (0.036%) were called active. This list was built around the results that the source calls inconclusive (neither active nor inactive); the mix of calls is not that of the screen. Calls come from the whole dose curve; as a rule, active = well fitted inhibition curve with a large enough effect in the signal ratio, with a control signal flat (not every such curve was filed as active); inconclusive = small, poorly fitted or top-dose-only effect, or effect the other way, or a change in a side signal; inactive = no such curve, though single readings can be large or run the other way; the % refers to the signal ratio. Where the call is inconclusive, the potency comes from a doubtful curve fit. A note “side channel” means that the fit belongs to a control or component signal, not to the main read-out. Potency is the fitted concentration of half-maximal effect; tags give direction and shape of the fitted curve or compound fluorescence and quenching."}
{"biological_target": "Muscleblind-like protein 1 (Homo sapiens) (UniProt Q9NR56)", "sequence (Q9NR56 whole entry, looked up)": "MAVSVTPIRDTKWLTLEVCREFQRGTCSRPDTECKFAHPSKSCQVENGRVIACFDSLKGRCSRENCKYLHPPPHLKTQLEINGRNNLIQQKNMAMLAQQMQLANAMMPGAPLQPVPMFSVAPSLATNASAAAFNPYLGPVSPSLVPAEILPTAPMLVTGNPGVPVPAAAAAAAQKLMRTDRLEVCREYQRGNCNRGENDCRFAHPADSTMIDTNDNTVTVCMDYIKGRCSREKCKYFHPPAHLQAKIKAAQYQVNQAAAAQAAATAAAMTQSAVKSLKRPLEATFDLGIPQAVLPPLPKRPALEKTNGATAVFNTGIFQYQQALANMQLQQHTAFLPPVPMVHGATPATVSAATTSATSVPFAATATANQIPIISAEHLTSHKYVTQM", "experiment": "qHTS Assay for Inhibitors of MBNL1-poly(CUG) RNA binding", "settings": "TR-FRET MBNL1-His/biotin-(CUG)12 binding, 665/545 ratio; series mostly up to 57.5 µM", "in_short": "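Ratiometric TR-FRET (665 over 545 nm, excitation 340 nm) tracks disruption of MBNL1-His/biotin-(CUG)12 complex after 60 min at room temperature, with compounds at 92 nM to 58 uM final.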"}
{"smiles": "O=C(Nc1ccc(N2CCOCC2)cc1)Nc1cnsn1", "Potency": "inconclusive: 50.1 µM [inhibitor, partial curve]"}
{"smiles": "CC(C)(C)C(=O)/C=c1\\[nH]c(=O)/c(=C\\c2ccc(C#N)cc2)s1", "Potency": "inconclusive: 7.94 µM [quencher, full curve, poor fit]"}
{"smiles": "Cc1cccc(N2CCN(C(=O)C(Cc3ccccc3)n3cccc3)CC2)c1C", "note": "(centres undefined)", "Potency": "inconclusive: 39.8 µM [quencher, side channel, partial curve]"}
{"smiles": "COC(=O)c1cc(=O)n(Cc2ccc(OC)c(OC)c2)c(=Nc2ccc(F)cc2)s1", "Potency": "inactive"}
{"smiles": "COC(=O)c1c(NC(=O)C(=O)NCCCN2CCOCC2)sc2c1CCC2", "Potency": "inconclusive: 39.8 µM [quencher, side channel, single point]"}
{"smiles": "Nc1[nH]c(=S)nc2nc(-c3ccccc3)c(-c3ccccc3)nc12", "Potency": "inconclusive: 4.47 µM [quencher, side channel, partial curve]"}
{"smiles": "O=C(CNC(=O)c1ccccc1Br)N/N=C/c1ccccc1O", "Potency": "inactive"}
{"smiles": "CC(C)NC(=O)N1CC(c2ccccc2)C(c2ccc(Cl)cc2)=N1", "note": "(centres undefined)", "Potency": "inactive"}
{"smiles": "COc1ccc(C(=O)N/C(=C/c2cccs2)c2nc3ccccc3[nH]2)cc1OC", "Potency": "inconclusive: 14.1 µM [quencher, side channel, partial curve, poor fit]"}
{"smiles": "O=[N+]([O-])c1ccc(-n2cnc3ccccc32)c([N+](=O)[O-])c1", "Potency": "inconclusive: 11.2 µM [quencher, side channel, partial curve]"}
{"smiles": "COc1cccc(/C=C/C(=O)Nc2ccc3nc4n(c(=O)c3c2)CCCC4)c1OC", "Potency": "inconclusive: 14.1 µM [quencher, side channel, partial curve]"}
{"smiles": "COc1cc(NC(=O)CN2CCN(c3ccccc3F)CC2)c(C)cc1[N+](=O)[O-]", "Potency": "inconclusive: 20 µM [fluorescent, side channel, partial curve]"}
{"smiles": "COc1ccc(OCCN(C)Cc2ccccc2)cc1", "Potency": "inconclusive: 0.794 µM [fluorescent, side channel, single point]"}
{"smiles": "CC1CCCN(C/C=C/c2ccccc2[N+](=O)[O-])C1", "note": "(centres undefined)", "Potency": "inconclusive: 15.8 µM [quencher, side channel, partial curve]"}
{"smiles": "CC(C)CNC(=O)/C(C#N)=C1\\N=C(NC(=O)c2ccco2)c2ccccc21", "Potency": "inconclusive: 8.91 µM [quencher, side channel, partial curve]"}
{"smiles": "CCC(CC)N=C1NS(=O)(=O)c2cc([N+](=O)[O-])ccc21", "Potency": "inconclusive: 12.6 µM [quencher, side channel, partial curve]"}
{"smiles": "CCN(CC(=O)NCc1ccc(Cl)cc1)C(=O)c1cnc(Cl)c(Cl)c1", "Potency": "inconclusive: 0.224 µM [quencher, side channel, full curve]"}
{"smiles": "O=C(N/N=C/c1coc2ccccc2c1=O)c1cccc([N+](=O)[O-])c1", "Potency": "inconclusive: 28.2 µM [quencher, side channel, single point]"}
{"smiles": "CC(/C=N/NC(=O)c1nn(C)c(C)c1Br)=C\\c1ccccc1", "Potency": "inconclusive: 20 µM [quencher, side channel, partial curve]"}
{"smiles": "CC(C)N1CCN(Cc2cccc3nonc23)CC1CCO", "note": "(centres undefined)", "Potency": "inconclusive: 31.6 µM [quencher, side channel, single point]"}
{"smiles": "CN(C)c1ccc(/C=N/NC(=O)CCC(=O)NCc2ccccc2)cc1", "Potency": "inconclusive: 17.8 µM [quencher, side channel, partial curve]"}
{"smiles": "O=C(Nc1cccc(Cl)c1)Nc1nnc(CC2=CCCCC2)s1", "Potency": "inconclusive: 8.91 µM [quencher, side channel, single point]"}
{"smiles": "Cc1[nH]n2c(=O)c3c(nc2c1-c1ccc(Cl)cc1)CCC3", "Potency": "inactive"}
{"smiles": "Cc1csc2ncc(C(=O)Nc3ccccc3F)c(=O)n12", "Potency": "inconclusive: 3.55 µM [quencher, side channel, single point]"}
{"smiles": "CCOC(=O)Nc1cccc(Cl)c1C", "Potency": "inactive"}
{"smiles": "COc1ccc2sc3ccccc3c(=O)c2c1OC", "Potency": "inconclusive: 15.8 µM [quencher, side channel, partial curve]"}
{"smiles": "CCn1nnnc1SCC(=O)Nc1ccc(OCc2ccccc2)cc1", "Potency": "inconclusive: 6.31 µM [quencher, side channel, single point]"}
{"smiles": "Cc1c(C(=O)Nc2cccc(C(F)(F)F)c2)oc2ccc(S(=O)(=O)N3CCOCC3)cc12", "Potency": "inactive"}
{"smiles": "CNS(=O)(=O)c1cc(-c2nnc(Nc3ccc(CC(N)=O)cc3)c3ccccc23)ccc1C", "Potency": "inconclusive: 20 µM [quencher, side channel, partial curve]"}
{"smiles": "O=C1NN(c2ccccc2)C(=O)/C1=C\\c1ccc2c(c1)OCO2", "Potency": "inactive"}
{"smiles": "COc1ccccc1N1C(=O)c2cccc3cccc(c23)C1=O", "Potency": "inconclusive: 10 µM [quencher, side channel, partial curve]"}
{"smiles": "COc1ccc(C2C=C(c3ccc(Br)s3)Nc3ncnn32)cc1OC", "note": "(centres undefined)", "Potency": "inconclusive: 25.1 µM [quencher, partial curve]"}
{"smiles": "Cc1ccc(N2C(=O)C(Cl)=C(Nc3c(C)n(C)n(-c4ccccc4)c3=O)C2=O)cc1", "Potency": "inconclusive: 28.2 µM [quencher, single point]"}
{"smiles": "CC1C(=O)C(C)(C)C(=O)OC1c1ccc([N+](=O)[O-])cc1", "note": "(centres undefined)", "Potency": "inconclusive: 12.6 µM [quencher, side channel, partial curve]"}
{"smiles": "CCC(=O)Nc1nc2ccc(NC(=O)c3cc(OC)c(OC)c(OC)c3)cc2s1", "Potency": "inconclusive: 5.01 µM [fluorescent, side channel, single point]"}
{"smiles": "O=C1c2ccccc2-c2ccc(C(=O)N3CCOCC3)cc21", "Potency": "inconclusive: 14.1 µM [quencher, partial curve]"}
{"smiles": "C=CCOC(=O)C1CC=CCC1C(=O)Oc1ccc(F)cc1F", "note": "(centres undefined)", "Potency": "inactive"}
{"smiles": "O=C(CNS(=O)(=O)c1cccc2nsnc12)NCCc1ccccc1", "Potency": "inconclusive: 11.2 µM [quencher, partial curve]"}
{"smiles": "COC(=O)c1cc(Nc2cc(C)c3ccc(O)cc3n2)cc(C(=O)OC)c1", "Potency": "inconclusive: 31.6 µM [fluorescent, side channel, single point]"}
